Reference: a collection of fitness landscapes (doi:10.1016/j.celrep.2020.107928)
Over roughly 81,000 sequences, “one-hybrid fitness for binding NBS DNA” has its median near -0.1; the highest 2% begin near 0.36. The list shows a part of the results.

B1: Caulobacter ParB omega fusion; a variant is named by its letters at X, in order, B8GW30 (parent)
chain: MESVVVGEPGMSEGRRGLGRGLSALLGEVDAAPAQAPGEQLGGSREAPIEILQRNPDQPRRTFREEDLEDLSNSIREKGVLQPILVRPSPDTAGEYQIVAGERAWRAAQRAGLKTVPIMVRELDDLAVLEIGIIENVQRADLNVLEEALSYKVLMEKFERTQENIAQTIGKSXSHVANXMRLLXLPDEVQSYLVSGELTAXHARAIAAAADPVALAKQIIEGGLSVRETEALARKAPNLSAGKSKGGRPPRVKDTDTQALESDLSSVLGLDVSIDHRGSTGTLTITYATLEQLDDLCNRLTRGI

Variants of: B1
Experiment: one-hybrid fitness for binding NBS DNA (the Noc-binding site; scaled: cognate 1, non-cognate 0); higher = stronger binding
Conditions: with NBS DNA site
In short: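 The reporter was HIS3, with the binding site 19 bp from the promoter, in E. coli USO used for bacterial one-hybrid selection of Caulobacter ParB libraries with four specificity codons randomised. Growth was on M9 lacking histidine, with 0.1 mM IPTG and 5 mM 3-AT, for 48 hours at 37°C. Illumina sequencing covered plasmids before and after selection; three replicate libraries were pooled and variants with under 10 reads dropped. A fitness score is the log change in variant-to-wild-type read ratio, rescaled to the cognate and non-cognate references.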

Row | Variant | one-hybrid fitness for binding NBS DNA
1 | AQGV | ≤ 0.2
2 | HSSC | ≤ 0.2
3 | GVFL | ≤ 0.2
4 | GYMS | ≤ 0.2
5 | LRSK | ≤ 0.2
6 | IAIT | ≤ 0.2
7 | GHPK | ≤ 0.2
8 | GMKN | ≤ 0.2
9 | VHCL | ≤ 0.2
10 | TMVR | ≤ 0.2
11 | CCNR | ≤ 0.2
12 | NSQS | ≤ 0.2
13 | SEVS | ≤ 0.2
14 | QATV | ≤ 0.2
15 | HYGT | ≤ 0.2
16 | GMRT | ≤ 0.2
17 | LLAP | ≤ 0.2
18 | ATMG | ≤ 0.2
19 | NMHC | ≤ 0.2
20 | DRSL | ≤ 0.2
21 | TMNV | ≤ 0.2
22 | DPQG | ≤ 0.2
23 | ADAG | ≤ 0.2
24 | DCLT | ≤ 0.2

Row | Variant | one-hybrid fitness for binding NBS DNA
25 | YDCS | ≤ 0.2
26 | KHLK | ≤ 0.2
27 | GTLD | ≤ 0.2
28 | FKWG | ≤ 0.2
29 | PTPR | ≤ 0.2
30 | PLKC | ≤ 0.2
31 | QIAK | ≤ 0.2
32 | VPVE | ≤ 0.2
33 | PDGP | ≤ 0.2
34 | CETW | ≤ 0.2
35 | YNNL | ≤ 0.2
36 | FVKP | ≤ 0.2
37 | QKVE | ≤ 0.2
38 | DTNF | ≤ 0.2
39 | HARY | ≤ 0.2
40 | PPKY | ≤ 0.2
41 | RMIY | ≤ 0.2
42 | RLNR | 0.526
43 | RDQV | ≤ 0.2
44 | LTEL | ≤ 0.2
45 | QIEP | ≤ 0.2
46 | IIHD | ≤ 0.2
47 | INME | ≤ 0.2
48 | DMAT | ≤ 0.2

Row | Variant | one-hybrid fitness for binding NBS DNA
49 | APCV | ≤ 0.2
50 | REQN | ≤ 0.2
51 | RKWY | ≤ 0.2
52 | ASDR | ≤ 0.2
53 | CRHG | ≤ 0.2
54 | KQTI | ≤ 0.2
55 | RIHD | ≤ 0.2
56 | QLFR | 0.329
57 | QQHN | ≤ 0.2
58 | HDPI | ≤ 0.2
59 | KHVS | ≤ 0.2
60 | KRVQ | 0.251
61 | LPVC | ≤ 0.2
62 | EESA | ≤ 0.2
63 | NYQG | ≤ 0.2
64 | FSYW | ≤ 0.2
65 | HDWM | ≤ 0.2
66 | EPIF | ≤ 0.2
67 | CPDW | ≤ 0.2
68 | CYNA | ≤ 0.2
69 | EDSR | ≤ 0.2
70 | MSKS | ≤ 0.2
71 | PSGN | ≤ 0.2
72 | NIQR | ≤ 0.2

Row | Variant | one-hybrid fitness for binding NBS DNA
73 | YSAY | ≤ 0.2
74 | QCFV | ≤ 0.2
75 | VKDS | ≤ 0.2
76 | QVEM | ≤ 0.2
77 | YRDL | ≤ 0.2
78 | RLHH | ≤ 0.2
79 | LVIT | ≤ 0.2
80 | EIYG | ≤ 0.2
81 | RVDC | ≤ 0.2
82 | QLTG | ≤ 0.2
83 | TCPT | ≤ 0.2
84 | AHYG | ≤ 0.2
85 | TGNK | ≤ 0.2
86 | WKYS | ≤ 0.2
87 | CTER | ≤ 0.2
88 | TMGL | ≤ 0.2
89 | AGAF | ≤ 0.2
90 | ACHT | ≤ 0.2
91 | ESNM | ≤ 0.2
92 | WHQV | ≤ 0.2
93 | LCLV | ≤ 0.2
94 | TMTF | ≤ 0.2
95 | VRGG | ≤ 0.2
96 | YGAG | ≤ 0.2

Row | Variant | one-hybrid fitness for binding NBS DNA
97 | RYNM | ≤ 0.2
98 | AQSC | ≤ 0.2
99 | PADP | ≤ 0.2
100 | NSFQ | ≤ 0.2
101 | EFHR | ≤ 0.2
102 | DTGC | ≤ 0.2
103 | PASF | ≤ 0.2
104 | STAH | ≤ 0.2
105 | SNST | ≤ 0.2
106 | VYMW | ≤ 0.2
107 | MHCR | ≤ 0.2
108 | SQAQ | ≤ 0.2
109 | HCIY | ≤ 0.2
110 | YPIR | ≤ 0.2
111 | DATG | ≤ 0.2
112 | TWFK | ≤ 0.2
113 | NTKL | ≤ 0.2
114 | HGYT | ≤ 0.2
115 | NNVT | ≤ 0.2
116 | THKF | ≤ 0.2
117 | PADL | ≤ 0.2
118 | EMSG | ≤ 0.2
119 | ARCC | ≤ 0.2
120 | PRNI | ≤ 0.2

Row | Variant | one-hybrid fitness for binding NBS DNA
121 | PRYV | ≤ 0.2
122 | HLVN | ≤ 0.2
123 | PPAQ | ≤ 0.2
124 | MGWW | ≤ 0.2
125 | CVTT | ≤ 0.2
126 | MCQS | ≤ 0.2
127 | WMRC | ≤ 0.2
128 | NMSS | ≤ 0.2
129 | NTLL | ≤ 0.2
130 | NTSH | ≤ 0.2
131 | HNAK | ≤ 0.2
132 | QQPI | ≤ 0.2
133 | SYQK | ≤ 0.2
134 | PCNS | ≤ 0.2
135 | ITMK | ≤ 0.2
136 | HVQL | ≤ 0.2
137 | AAMQ | ≤ 0.2
138 | MRPT | ≤ 0.2
139 | LKYC | ≤ 0.2
140 | WTRW | ≤ 0.2
141 | LHEG | ≤ 0.2
142 | RICC | ≤ 0.2
143 | RRHK | 0.267
144 | PAKD | ≤ 0.2

Row | Variant | one-hybrid fitness for binding NBS DNA
145 | AYAY | ≤ 0.2
146 | NGTY | ≤ 0.2
147 | KQSE | ≤ 0.2
148 | SMKV | ≤ 0.2
149 | ITVP | ≤ 0.2
150 | PQDC | ≤ 0.2
151 | LSFI | ≤ 0.2
152 | GSSN | ≤ 0.2
153 | PLDD | ≤ 0.2
154 | FWRY | 0.203
155 | VFRG | ≤ 0.2
156 | HMAN | ≤ 0.2
157 | EECR | ≤ 0.2
158 | KKCG | ≤ 0.2
159 | ATCA | ≤ 0.2
160 | MWQS | ≤ 0.2
161 | VLNY | ≤ 0.2
162 | QLPP | ≤ 0.2
163 | IVPS | ≤ 0.2
164 | VPAV | ≤ 0.2
165 | KRPF | ≤ 0.2
166 | QHSP | ≤ 0.2
167 | SPDN | ≤ 0.2
168 | VTPV | ≤ 0.2

Row | Variant | one-hybrid fitness for binding NBS DNA
169 | HLKN | ≤ 0.2
170 | ESDR | ≤ 0.2
171 | CVHC | ≤ 0.2
172 | WYNC | ≤ 0.2
173 | RLCT | 0.396
174 | RRTC | 0.314
175 | CQCL | ≤ 0.2
176 | KGKV | ≤ 0.2
177 | RNGP | ≤ 0.2
178 | RQMD | ≤ 0.2
179 | TIPM | ≤ 0.2
180 | PRFH | ≤ 0.2
181 | KRIP | ≤ 0.2
182 | QELQ | ≤ 0.2
183 | CAKG | ≤ 0.2
184 | ACWL | ≤ 0.2
185 | GTAD | ≤ 0.2
186 | SNYS | ≤ 0.2
187 | GNPR | ≤ 0.2
188 | DATL | ≤ 0.2
189 | GSQC | ≤ 0.2
190 | ILGL | ≤ 0.2
191 | AKAR | ≤ 0.2
192 | QPVH | ≤ 0.2

Row | Variant | one-hybrid fitness for binding NBS DNA
193 | NTNE | ≤ 0.2
194 | KGEV | ≤ 0.2
195 | LLIV | ≤ 0.2
196 | TQLQ | ≤ 0.2
197 | YLSC | ≤ 0.2
198 | LRRA | ≤ 0.2
199 | WNCL | ≤ 0.2
200 | RKER | 0.475
201 | VWYT | ≤ 0.2
202 | VYMC | ≤ 0.2
203 | RQTD | ≤ 0.2
204 | HHSP | ≤ 0.2
205 | QSKE | ≤ 0.2
206 | QPYN | ≤ 0.2
207 | QFIM | ≤ 0.2
208 | QVLA | ≤ 0.2
209 | DMSS | ≤ 0.2
210 | APAM | ≤ 0.2
211 | HQTG | ≤ 0.2
212 | REHW | ≤ 0.2
213 | YAYT | ≤ 0.2
214 | EQRF | ≤ 0.2
215 | TSGS | ≤ 0.2
216 | MHAT | ≤ 0.2

Row | Variant | one-hybrid fitness for binding NBS DNA
217 | DVHC | ≤ 0.2
218 | QAWW | ≤ 0.2
219 | CRTL | ≤ 0.2
220 | LYAV | ≤ 0.2
221 | QTML | ≤ 0.2
222 | TWSG | ≤ 0.2
223 | SYQW | ≤ 0.2
224 | HKVC | ≤ 0.2
225 | QVER | ≤ 0.2
226 | APQY | ≤ 0.2
227 | HSEQ | ≤ 0.2
228 | CFTM | ≤ 0.2
229 | DSRW | ≤ 0.2
230 | PWPC | ≤ 0.2
231 | SMTC | ≤ 0.2
232 | QKKF | 0.294
233 | SCQY | ≤ 0.2
234 | CIRD | ≤ 0.2
235 | MMLG | ≤ 0.2
236 | IFKT | ≤ 0.2
237 | TKET | ≤ 0.2
238 | LMNG | ≤ 0.2
239 | GCIS | ≤ 0.2
240 | HCSE | ≤ 0.2

Row | Variant | one-hybrid fitness for binding NBS DNA
241 | AQHW | ≤ 0.2
242 | QCCA | 0.326
243 | DRHG | ≤ 0.2
244 | WLGC | ≤ 0.2
245 | QMSL | ≤ 0.2
246 | RKLH | 0.227
247 | FHNQ | ≤ 0.2
248 | STWT | ≤ 0.2
249 | SVSV | ≤ 0.2
250 | RQYY | ≤ 0.2
251 | QYKK | 0.398
252 | IRAV | ≤ 0.2
253 | TWYR | ≤ 0.2
254 | VTLE | ≤ 0.2
255 | SPMY | ≤ 0.2
256 | PDYR | ≤ 0.2
257 | QFNI | ≤ 0.2
258 | WLVA | ≤ 0.2
259 | CKDR | ≤ 0.2
260 | VWLP | ≤ 0.2
261 | WCAC | ≤ 0.2
262 | MMTS | ≤ 0.2
263 | PGPR | ≤ 0.2
264 | AALL | ≤ 0.2

Row | Variant | one-hybrid fitness for binding NBS DNA
265 | KCQR | ≤ 0.2
266 | EPTT | ≤ 0.2
267 | CQRY | ≤ 0.2
268 | TKYM | ≤ 0.2
269 | QTLN | ≤ 0.2
270 | PNAQ | ≤ 0.2
271 | CLDE | ≤ 0.2
272 | PKAK | ≤ 0.2
273 | PHEF | ≤ 0.2
274 | PLLE | ≤ 0.2
275 | QACC | ≤ 0.2
276 | PKRG | ≤ 0.2
277 | RFHM | ≤ 0.2
278 | NRSI | ≤ 0.2
279 | NLDH | ≤ 0.2
280 | ITYM | ≤ 0.2
281 | PSHY | ≤ 0.2
282 | ICNL | ≤ 0.2
283 | RCVG | ≤ 0.2
284 | WVNG | ≤ 0.2
285 | LLWV | ≤ 0.2
286 | SMLI | ≤ 0.2
287 | PIEG | ≤ 0.2
288 | DGIM | ≤ 0.2

Row | Variant | one-hybrid fitness for binding NBS DNA
289 | TRHE | ≤ 0.2
290 | SCKK | ≤ 0.2
291 | CILL | ≤ 0.2
292 | KSRH | ≤ 0.2
293 | DKNT | ≤ 0.2
294 | MHPL | ≤ 0.2
295 | AVPE | ≤ 0.2
296 | TMPC | ≤ 0.2
297 | LVIC | ≤ 0.2
298 | WYAS | ≤ 0.2
299 | ALPT | ≤ 0.2
300 | GRLY | ≤ 0.2
301 | SFMH | ≤ 0.2
302 | NNNL | ≤ 0.2
303 | DRKS | ≤ 0.2
304 | NALV | ≤ 0.2
305 | QYHE | ≤ 0.2
306 | CGNI | ≤ 0.2
